From patent publication US20210070829A1 (ZHEJIANG DOER BIOLOGICS, published 2021)
Residue numbers refer to the chain shown, from its start.

B1: C352 L13F4L9M3 (Fc fusion)
chain: HSQGTFTSDYSKYLDEQAAQDFVQWLMNGPSSGAPPPSGGGGSGGGGSGGGGSA[human IgG1 Fc with changes omitted here]GGGSGGGGSGGGGSDSSPLLQFGGQVRQRYLYTDDAQQTEAHLEIREDGTVGGAADQSPESLLQLKALKPGVIQILGVKTSRFLCQRPDGALYGSLHFDPEACSFRELLLEDGYNVYQSEAHGLPLHCPGNKSPHRDPAPRGPCRFLPLPGLPPALPEPPGILAPQPPDVGSSDPLAMVGPSQGRSPSYAS
B2: C271 L9F4L8M2 (Fc fusion)
chain: HSQGTFTSDYSKYLDGRAAQDFVQWLMNTGPSSGAPPPSGGGGSGGGGSGGGGS[human IgG1 Fc with changes omitted here]GSGGGAGGGGSHPIPDSSPLLQFGGQVRQRYLYTDDAQQTEAHLEIREDGTVGGAADQSPESLLQLKALKPGVIQILGVKTSRFLCQRPDGALYGSLHFDPEACSFRERLLEDGYNVYQSEAHGLPLHCPGNKSPHRDPAPRGPCRFLPLPGLPPALPEPPGILAPQPPDVGSSDPLSMVGGSQGRSPSYES
B3: C382 L9F3L9M2 (Fc fusion)
chain: HSQGTFTSDYSKYLDSQAAQDFVQWLMNGGPSSGAPPPSGGGGSGGGGSGGGGS[human IgG1 Fc with changes omitted here]GGGGSGGGGSGGGGSHPIPDSSPLLQFGGQVRQRYLYTDDAQQTEAHLEIREDGTVGGAADQSPESLLQLKALKPGVIQILGVKTSRFLCQRPDGALYGSLHFDPEACSFRERLLEDGYNVYQSEAHGLPLHCPGNKSPHRDPAPRGPCRFLPLPGLPPALPEPPGILAPQPPDVGSSDPLSMVGGSQGRSPSYES
B4: C382 L10F2L13M2 (Fc fusion)
chain: HSQGTFTSDYSKYLDSQAAQDFVQWLMNGGPSSGAPPPSGGGGAGGGGAGGGGA[human IgG1 Fc with changes omitted here]GGGSGGGGSGGGGSAHPIPDSSPLLQFGGQVRQRYLYTDDAQQTEAHLEIREDGTVGGAADQSPESLLQLKALKPGVIQILGVKTSRFLCQRPDGALYGSLHFDPEACSFRERLLEDGYNVYQSEAHGLPLHCPGNKSPHRDPAPRGPCRFLPLPGLPPALPEPPGILAPQPPDVGSSDPLSMVGGSQGRSPSYES
B5: C240 L9F7L13M2 (Fc fusion)
chain: HSQGTFTSDYSKYLDERAAQDFVQWLMNGGPSSGAPPPSGGGGSGGGGSGGGGS[human IgG4 Fc with S228P N297A (EU numbers) omitted here]GGGGSGGGGSGGGGSAHPIPDSSPLLQFGGQVRQRYLYTDDAQQTEAHLEIREDGTVGGAADQSPESLLQLKALKPGVIQILGVKTSRFLCQRPDGALYGSLHFDPEACSFRERLLEDGYNVYQSEAHGLPLHCPGNKSPHRDPAPRGPCRFLPLPGLPPALPEPPGILAPQPPDVGSSDPLSMVGGSQGRSPSYES
B6: C240 L13F4L9M1 (Fc fusion)
chain: HSQGTFTSDYSKYLDERAAQDFVQWLMNGGPSSGAPPPSGGGGSGGGGSGGGGSA[human IgG1 Fc with changes omitted here]GGGSGGGGSGGGGSHPIPDSSPLLQFGGQVRQRYLYTDDAQQTEAHLEIREDGTVGGAADQSPESLLQLKALKPGVIQILGVKTSRFLCQRPDGALYGSLHFDPEACSFRERLLEDGYNVYQSEAHGLPLHLPGNKSPHRDPAPRGPARFLPLPGLPPALPEPPGILAPQPPDVGSSDPLSMVGGSQGRSPSYES
B7: C382 L14F4L9M2 (Fc fusion)
chain: HSQGTFTSDYSKYLDSQAAQDFVQWLMNGGPSSGAPPPSGGGGAGGGGAGGGGAS[human IgG1 Fc with changes omitted here]GGGSGGGGSGGGGSHPIPDSSPLLQFGGQVRQRYLYTDDAQQTEAHLEIREDGTVGGAADQSPESLLQLKALKPGVIQILGVKTSRFLCQRPDGALYGSLHFDPEACSFRERLLEDGYNVYQSEAHGLPLHCPGNKSPHRDPAPRGPCRFLPLPGLPPALPEPPGILAPQPPDVGSSDPLSMVGGSQGRSPSYES
B8: C495 L13F8L10M2 (Fc fusion)
chain: HSQGTFTSDYSKYLDEQAAQDFVQWLMNGGPSSGAPPPSGGGGSGGGGSGGGGSA[human IgG4 Fc with S228P N297A (EU numbers) omitted here]GGGGAGGGGAGGGGAHPIPDSSPLLQFGGQVRQRYLYTDDAQQTEAHLEIREDGTVGGAADQSPESLLQLKALKPGVIQILGVKTSRFLCQRPDGALYGSLHFDPEACSFRERLLEDGYNVYQSEAHGLPLHCPGNKSPHRDPAPRGPCRFLPLPGLPPALPEPPGILAPQPPDVGSSDPLSMVGGSQGRSPSYES
B9: C382 L13F8L10M2 (Fc fusion)
chain: B8 chain with E16S
B10: C382 L12F7L9M2 (Fc fusion)
chain: HSQGTFTSDYSKYLDSQAAQDFVQWLMNGGPSSGAPPPSGGGGAGGGGAGGGGAA[human IgG4 Fc with S228P N297A (EU numbers) omitted here]GGGGSGGGGSGGGGSHPIPDSSPLLQFGGQVRQRYLYTDDAQQTEAHLEIREDGTVGGAADQSPESLLQLKALKPGVIQILGVKTSRFLCQRPDGALYGSLHFDPEACSFRERLLEDGYNVYQSEAHGLPLHCPGNKSPHRDPAPRGPCRFLPLPGLPPALPEPPGILAPQPPDVGSSDPLSMVGGSQGRSPSYES
B11: C240 L12F8L12M1 (Fc fusion)
chain: HSQGTFTSDYSKYLDERAAQDFVQWLMNGGPSSGAPPPSGGGGAGGGGAGGGGAA[human IgG4 Fc with S228P N297A (EU numbers) omitted here]GGGGAGGGGAGGGGAAHPIPDSSPLLQFGGQVRQRYLYTDDAQQTEAHLEIREDGTVGGAADQSPESLLQLKALKPGVIQILGVKTSRFLCQRPDGALYGSLHFDPEACSFRERLLEDGYNVYQSEAHGLPLHLPGNKSPHRDPAPRGPARFLPLPGLPPALPEPPGILAPQPPDVGSSDPLSMVGGSQGRSPSYES
B12: C495 L13F8L13M1 (Fc fusion)
chain: HSQGTFTSDYSKYLDEQAAQDFVQWLMNGGPSSGAPPPSGGGGSGGGGSGGGGSA[human IgG4 Fc with S228P N297A (EU numbers) omitted here]GGGGSGGGGSGGGGSAHPIPDSSPLLQFGGQVRQRYLYTDDAQQTEAHLEIREDGTVGGAADQSPESLLQLKALKPGVIQILGVKTSRFLCQRPDGALYGSLHFDPEACSFRERLLEDGYNVYQSEAHGLPLHLPGNKSPHRDPAPRGPARFLPLPGLPPALPEPPGILAPQPPDVGSSDPLSMVGGSQGRSPSYES
B13: C163 L13F8L13M2 (Fc fusion)
chain: HSQGTFTSDYSKYLDSRAAQDFVQWLMNTGPSSGAPPPSGGGGSGGGGSGGGGSA[human IgG4 Fc with S228P N297A (EU numbers) omitted here]GGGGSGGGGSGGGGSAHPIPDSSPLLQFGGQVRQRYLYTDDAQQTEAHLEIREDGTVGGAADQSPESLLQLKALKPGVIQILGVKTSRFLCQRPDGALYGSLHFDPEACSFRERLLEDGYNVYQSEAHGLPLHCPGNKSPHRDPAPRGPCRFLPLPGLPPALPEPPGILAPQPPDVGSSDPLSMVGGSQGRSPSYES
B14: C240 L9F2L13M3 (Fc fusion)
chain: HSQGTFTSDYSKYLDERAAQDFVQWLMNGGPSSGAPPPSGGGGSGGGGSGGGGS[human IgG1 Fc with changes omitted here]GGGSGGGGSGGGGSADSSPLLQFGGQVRQRYLYTDDAQQTEAHLEIREDGTVGGAADQSPESLLQLKALKPGVIQILGVKTSRFLCQRPDGALYGSLHFDPEACSFRELLLEDGYNVYQSEAHGLPLHCPGNKSPHRDPAPRGPCRFLPLPGLPPALPEPPGILAPQPPDVGSSDPLAMVGPSQGRSPSYAS
B15: C232 L9F3L10M3 (Fc fusion)
chain: HSQGTFTSDYSKYLDSQAAQDFVQWLMNTGPSSGAPPPSGGGGSGGGGSGGGGS[human IgG1 Fc with changes omitted here]GGGGAGGGGAGGGGADSSPLLQFGGQVRQRYLYTDDAQQTEAHLEIREDGTVGGAADQSPESLLQLKALKPGVIQILGVKTSRFLCQRPDGALYGSLHFDPEACSFRELLLEDGYNVYQSEAHGLPLHCPGNKSPHRDPAPRGPCRFLPLPGLPPALPEPPGILAPQPPDVGSSDPLAMVGPSQGRSPSYAS
B16: C368 L10F4L10M2 (Fc fusion)
chain: HSQGTFTSDYSKYLDEQAAQDFVQWLMNTGPSSGAPPPSGGGGAGGGGAGGGGA[human IgG1 Fc with changes omitted here]GGGAGGGGAGGGGAHPIPDSSPLLQFGGQVRQRYLYTDDAQQTEAHLEIREDGTVGGAADQSPESLLQLKALKPGVIQILGVKTSRFLCQRPDGALYGSLHFDPEACSFRERLLEDGYNVYQSEAHGLPLHCPGNKSPHRDPAPRGPCRFLPLPGLPPALPEPPGILAPQPPDVGSSDPLSMVGGSQGRSPSYES

Target: FGFR/β-Klotho receptor complex
Assay: cell-based or functional assay

| Binder | FGF21 activity EC50 (luciferase reporter) [nM] |
| --- | --- |
| B1 | 1.45 |
| B2 | 0.87 |
| B3 | 0.81 |
| B4 | 0.87 |
| B5 | 0.83 |
| B6 | 0.77 |
| B7 | 0.76 |
| B8 | 0.71 |
| B9 | 0.91 |
| B10 | 0.88 |
| B11 | 0.79 |
| B12 | 0.82 |
| B13 | 0.93 |
| B14 | 1.36 |
| B15 | 0.65 |
| B16 | 0.74 |

Target: human GLP-1 receptor (human, UniProt P43220)
Assay: cell-based or functional assay

| Binder | GLP-1R agonist activity EC50 (luciferase reporter) [nM] |
| --- | --- |
| B1 | 1.21 |
| B2 | 1.33 |
| B3 | 1.18 |
| B4 | 1.19 |
| B5 | 1.17 |
| B6 | 1.26 |
| B7 | 1.25 |
| B8 | 1.3 |
| B9 | 1.21 |
| B10 | 1.3 |
| B11 | 1.13 |
| B12 | 1.33 |
| B13 | 1.28 |
| B14 | 1.31 |
| B15 | 1.79 |
| B16 | 1.3 |

Target: Glucagon receptor
Assay: cell-based or functional assay

| Binder | GCGR agonist activity EC50 (luciferase reporter) [nM] |
| --- | --- |
| B1 | 1.15 |
| B2 | 1.18 |
| B3 | 1.35 |
| B4 | 1.21 |
| B5 | 1.3 |
| B6 | 1.16 |
| B7 | 1.22 |
| B8 | 1.21 |
| B9 | 1.33 |
| B10 | 1.42 |
| B11 | 1.2 |
| B12 | 1.13 |
| B13 | 1.37 |
| B14 | 1.34 |
| B15 | 1.45 |
| B16 | 1.25 |
